No constants are given. Whether binding was seen depends on the method and setting. Some entries that bind do so weakly or less than the wild type.
Tests used:
Experiment in all cases: two-hybrid; mammalian two-hybrid (Checkmate, Promega) in U2OS; bait pBIND (GAL4 DNA-binding domain)-FOXM1, prey pACT (VP16 activation domain)-CDC25A, reporter pG5-luc; firefly normalised to Renilla luciferase; 2 days
[1] = target: T1, GAL4-FOXM1 (human) (UniProt Q08050)
T1 sequence: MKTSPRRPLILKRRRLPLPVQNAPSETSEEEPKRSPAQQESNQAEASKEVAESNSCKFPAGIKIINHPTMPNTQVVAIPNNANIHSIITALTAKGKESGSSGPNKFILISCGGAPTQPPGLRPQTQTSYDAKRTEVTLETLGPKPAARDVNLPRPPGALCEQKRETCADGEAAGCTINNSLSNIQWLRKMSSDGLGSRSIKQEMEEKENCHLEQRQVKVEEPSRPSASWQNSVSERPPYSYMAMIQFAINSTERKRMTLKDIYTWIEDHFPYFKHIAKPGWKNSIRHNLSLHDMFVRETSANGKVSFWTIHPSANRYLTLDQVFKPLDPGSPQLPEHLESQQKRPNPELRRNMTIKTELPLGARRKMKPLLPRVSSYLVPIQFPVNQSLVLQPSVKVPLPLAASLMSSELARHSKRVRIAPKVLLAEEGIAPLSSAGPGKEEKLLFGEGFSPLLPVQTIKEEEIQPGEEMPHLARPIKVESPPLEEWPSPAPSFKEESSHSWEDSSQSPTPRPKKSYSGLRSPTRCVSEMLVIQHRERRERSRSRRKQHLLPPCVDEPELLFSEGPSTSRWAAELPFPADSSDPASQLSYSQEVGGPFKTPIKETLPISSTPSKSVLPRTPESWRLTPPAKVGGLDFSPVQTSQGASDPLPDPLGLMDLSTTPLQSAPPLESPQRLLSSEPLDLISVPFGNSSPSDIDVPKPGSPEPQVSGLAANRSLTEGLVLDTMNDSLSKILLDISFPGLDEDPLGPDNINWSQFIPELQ

[2] = target: T2, GAL4-FOXM1 WHD fragment (amino acids 236-329) (human) (UniProt Q08050)
T2 sequence: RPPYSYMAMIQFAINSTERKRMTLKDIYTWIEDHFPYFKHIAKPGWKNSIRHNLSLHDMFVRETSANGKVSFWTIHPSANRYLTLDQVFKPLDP

[3] = target: T3, GAL4-FOXM1 T600A (human) (UniProt Q08050)
T3 sequence: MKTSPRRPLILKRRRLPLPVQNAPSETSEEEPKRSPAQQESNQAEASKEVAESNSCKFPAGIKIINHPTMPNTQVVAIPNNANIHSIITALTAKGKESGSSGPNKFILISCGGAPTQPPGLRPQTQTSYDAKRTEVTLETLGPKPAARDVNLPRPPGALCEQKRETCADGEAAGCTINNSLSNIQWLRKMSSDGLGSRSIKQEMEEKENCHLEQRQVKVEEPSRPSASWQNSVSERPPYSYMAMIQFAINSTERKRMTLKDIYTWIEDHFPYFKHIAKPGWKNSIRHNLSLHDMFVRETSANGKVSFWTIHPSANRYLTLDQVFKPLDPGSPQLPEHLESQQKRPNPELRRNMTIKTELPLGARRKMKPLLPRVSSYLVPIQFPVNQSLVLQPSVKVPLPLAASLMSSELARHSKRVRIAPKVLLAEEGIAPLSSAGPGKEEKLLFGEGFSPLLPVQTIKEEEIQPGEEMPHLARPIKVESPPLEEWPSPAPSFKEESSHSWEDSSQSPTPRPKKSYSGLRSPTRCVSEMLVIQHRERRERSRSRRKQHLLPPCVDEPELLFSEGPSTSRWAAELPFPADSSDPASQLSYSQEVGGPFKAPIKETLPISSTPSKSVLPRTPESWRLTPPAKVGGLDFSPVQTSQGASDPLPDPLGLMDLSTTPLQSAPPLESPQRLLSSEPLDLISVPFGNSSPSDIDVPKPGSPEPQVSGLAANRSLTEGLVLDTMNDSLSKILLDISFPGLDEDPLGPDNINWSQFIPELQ

[4] = target: T4, GAL4-FOXM1 T611A (human) (UniProt Q08050)
T4 sequence: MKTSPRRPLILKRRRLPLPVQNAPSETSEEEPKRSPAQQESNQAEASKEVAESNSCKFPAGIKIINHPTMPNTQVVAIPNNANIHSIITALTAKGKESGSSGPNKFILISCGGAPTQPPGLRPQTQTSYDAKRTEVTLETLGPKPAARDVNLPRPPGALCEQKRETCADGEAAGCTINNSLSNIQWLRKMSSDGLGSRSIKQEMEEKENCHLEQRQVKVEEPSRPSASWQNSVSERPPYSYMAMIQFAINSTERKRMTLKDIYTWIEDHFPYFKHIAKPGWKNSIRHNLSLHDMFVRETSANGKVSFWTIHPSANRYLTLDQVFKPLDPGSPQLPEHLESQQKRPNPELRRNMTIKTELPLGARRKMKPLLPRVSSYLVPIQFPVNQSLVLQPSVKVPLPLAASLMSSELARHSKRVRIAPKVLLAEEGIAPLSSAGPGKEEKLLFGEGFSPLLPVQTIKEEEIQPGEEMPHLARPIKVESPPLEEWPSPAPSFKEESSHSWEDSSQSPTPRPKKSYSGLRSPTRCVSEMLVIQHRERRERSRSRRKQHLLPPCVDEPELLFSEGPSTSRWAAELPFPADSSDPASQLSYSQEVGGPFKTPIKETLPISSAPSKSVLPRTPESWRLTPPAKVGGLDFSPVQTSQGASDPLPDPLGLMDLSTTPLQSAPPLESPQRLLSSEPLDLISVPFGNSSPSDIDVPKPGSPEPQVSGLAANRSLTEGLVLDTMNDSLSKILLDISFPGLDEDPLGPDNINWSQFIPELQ

B1: VP16-CDC25A (natural protein, UniProt P30304 1-524, looked up)
chain: MELGPEPPHRRRLLFACSPPPASQPVVKALFGASAAGGLSPVTNLTVTMDQLQGLGSDYEQPLEVKNNSNLQRMGSSESTDSGFCLDSPGPLDSKENLENPMRRIHSLPQKLLGCSPALKRSHSDSLDHDIFQLIDPDENKENEAFEFKKPVRPVSRGCLHSHGLQEGKDLFTQRQNSAPARMLSSNERDSSEPGNFIPLFTPQSPVTATLSDEDDGFVDLLDGENLKNEEETPSCMASLWTAPLVMRTTNLDNRCKLFDSPSLCSSSTRSVLKRPERSQEESPPGSTKRRKSMSGASPKESTNPEKAHETLHQSLSLASSPKGTIENILDNDPRDLIGDFSKGYLFHTVAGKHQDLKYISPEIMASVLNGKFANLIKEFVIIDCRYPYEYEGGHIKGAVNLHMEEEVEDFLLKKPIVPTDGKRVIVVFHCEFSSERGPRMCRYVRERDRLGNEYPKLHYPELYVLKGGYKEFFMKCQSYCEPPSYRPMHHEDFKEDLKKFRTKSRTWAGEKSKREMYSRLKKL
notes: CDC25A (cell division cycle 25A) dual phosphatase; plasmid bought from Origene; also called pACT-CDC25A; wild-type CDC25A; source: mammalian two-hybrid fusion, U2OS, transfected
For B1, the binding [1] was “binds”, the binding [2] was “no binding” and the binding [3] was “binds”. The binding [4] was “binds”.
